From paper PMC5775257
No constants are given. Whether binding was seen depends on the method and setting. Binding seen in cells or lysates may run through a third protein. Some entries that bind do so weakly or less than the wild type. Tags and fused reporters may be left off the sequences shown.

Key:
Experiment in all cases: co-IP; anti-GFP (polyclonal, Protein G Dynabeads) immunoprecipitation from lysates of transfected HEK293T cells, 4 h at 4 °C, with or without RNase; immunoblot
[1] = biological target: T1, GFP-Roquin-1 (aa 509–1130) (UniProt Q4VGL6)
T1 sequence: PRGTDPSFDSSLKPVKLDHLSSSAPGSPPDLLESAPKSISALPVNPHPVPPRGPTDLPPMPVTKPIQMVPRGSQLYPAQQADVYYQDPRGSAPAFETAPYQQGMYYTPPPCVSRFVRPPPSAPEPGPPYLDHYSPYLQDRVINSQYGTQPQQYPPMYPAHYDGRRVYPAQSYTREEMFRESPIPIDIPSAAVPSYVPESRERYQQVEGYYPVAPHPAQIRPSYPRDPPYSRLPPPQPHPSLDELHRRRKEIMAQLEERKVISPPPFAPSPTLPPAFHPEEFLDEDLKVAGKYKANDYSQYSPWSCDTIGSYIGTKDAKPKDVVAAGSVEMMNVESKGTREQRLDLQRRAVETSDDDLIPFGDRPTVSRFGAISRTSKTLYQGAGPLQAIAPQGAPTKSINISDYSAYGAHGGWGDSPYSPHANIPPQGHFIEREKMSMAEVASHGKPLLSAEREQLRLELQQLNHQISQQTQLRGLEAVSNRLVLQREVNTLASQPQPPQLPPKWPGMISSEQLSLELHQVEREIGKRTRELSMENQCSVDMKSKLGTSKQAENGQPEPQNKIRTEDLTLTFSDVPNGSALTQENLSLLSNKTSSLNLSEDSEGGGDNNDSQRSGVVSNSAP

[2] = biological target: T2, GFP-Roquin-1 (aa 1–509) (UniProt Q4VGL6)
T2 sequence: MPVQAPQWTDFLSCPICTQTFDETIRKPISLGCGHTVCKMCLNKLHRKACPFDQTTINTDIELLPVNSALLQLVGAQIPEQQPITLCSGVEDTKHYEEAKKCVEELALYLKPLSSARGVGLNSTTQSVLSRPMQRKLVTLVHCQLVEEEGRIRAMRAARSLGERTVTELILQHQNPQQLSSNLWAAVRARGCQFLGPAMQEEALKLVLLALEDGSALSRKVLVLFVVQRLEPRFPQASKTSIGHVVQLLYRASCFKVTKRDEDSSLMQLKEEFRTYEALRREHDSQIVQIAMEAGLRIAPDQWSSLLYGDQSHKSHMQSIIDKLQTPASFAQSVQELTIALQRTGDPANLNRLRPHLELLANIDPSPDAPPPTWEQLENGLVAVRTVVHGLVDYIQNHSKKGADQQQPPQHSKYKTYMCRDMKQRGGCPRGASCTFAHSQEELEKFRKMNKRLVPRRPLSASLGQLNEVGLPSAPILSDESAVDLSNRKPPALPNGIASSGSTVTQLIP

[3] = biological target: T3, GFP-Roquin-1 full-length (UniProt Q4VGL6)
T3 sequence: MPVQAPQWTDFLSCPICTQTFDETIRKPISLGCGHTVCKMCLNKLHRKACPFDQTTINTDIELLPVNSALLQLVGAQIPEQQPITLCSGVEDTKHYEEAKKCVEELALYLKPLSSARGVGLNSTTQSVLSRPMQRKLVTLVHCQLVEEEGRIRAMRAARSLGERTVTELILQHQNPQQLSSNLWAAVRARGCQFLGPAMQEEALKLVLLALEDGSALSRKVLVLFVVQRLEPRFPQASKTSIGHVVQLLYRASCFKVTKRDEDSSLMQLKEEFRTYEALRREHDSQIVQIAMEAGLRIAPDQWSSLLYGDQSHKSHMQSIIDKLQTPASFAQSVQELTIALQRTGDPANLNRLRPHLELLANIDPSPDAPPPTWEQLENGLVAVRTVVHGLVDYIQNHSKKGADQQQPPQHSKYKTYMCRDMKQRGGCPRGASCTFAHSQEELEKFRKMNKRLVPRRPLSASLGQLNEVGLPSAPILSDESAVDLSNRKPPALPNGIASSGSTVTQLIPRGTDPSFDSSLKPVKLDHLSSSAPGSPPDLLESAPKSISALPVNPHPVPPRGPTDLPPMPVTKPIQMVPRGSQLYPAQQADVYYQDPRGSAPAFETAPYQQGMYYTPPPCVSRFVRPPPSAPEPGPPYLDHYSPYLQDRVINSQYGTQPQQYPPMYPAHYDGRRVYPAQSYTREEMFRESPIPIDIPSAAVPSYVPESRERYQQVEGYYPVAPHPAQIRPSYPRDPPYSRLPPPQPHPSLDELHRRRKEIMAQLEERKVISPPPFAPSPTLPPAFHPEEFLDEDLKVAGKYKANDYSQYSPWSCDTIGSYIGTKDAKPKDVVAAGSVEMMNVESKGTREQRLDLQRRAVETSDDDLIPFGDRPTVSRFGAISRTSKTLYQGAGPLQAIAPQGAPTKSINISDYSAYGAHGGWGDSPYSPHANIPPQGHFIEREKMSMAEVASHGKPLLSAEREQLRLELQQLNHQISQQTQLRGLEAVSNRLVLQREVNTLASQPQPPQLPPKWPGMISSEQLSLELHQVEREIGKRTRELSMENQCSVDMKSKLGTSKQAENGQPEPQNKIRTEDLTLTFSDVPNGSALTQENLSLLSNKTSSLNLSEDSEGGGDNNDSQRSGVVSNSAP

binding [1]: no binding
binding [2]: binds
binding [3]: binds
B1: NUFIP2 (overexpressed) (protein, UniProt Q7Z417 1-695)
chain: MEEKPGQPQPQHHHSHHHPHHHPQQQQQQPHHHHHYYFYNHSHNHHHHHHHQQPHQYLQHGAEGSPKAQPKPLKHEQKHTLQQHQETPKKKTGYGELNGNAGEREISLKNLSSDEATNPISRVLNGNQQVVDTSLKQTVKANTFGKAGIKTKNFIQKNSMDKKNGKSYENKSGENQSVDKSDTIPIPNGVVTNNSGYITNGYMGKGADNDGSGSESGYTTPKKRKARRNSAKGCENLNIVQDKIMQQETSVPTLKQGLETFKPDYSEQKGNRVDGSKPIWKYETGPGGTSRGKPAVGDMLRKSSDSKPGVSSKKFDDRPKGKHASAVASKEDSWTLFKPPPVFPVDNSSAKIVPKISYASKVKENLNKTIQNSSVSPTSSSSSSSSTGETQTQSSSRLSQVPMSALKSVTSANFSNGPVLAGTDGNVYPPGGQPLLTTAANTLTPISSGTDSVLQDMSLTSAAVEQIKTSLFIYPSNMQTMLLSTAQVDLPSQTDQQNLGDIFQNQWGLSFINEPSAGPETVTGKSSEHKVMEVTFQGEYPATLVSQGAEIIPSGTEHPVFPKAYELEKRTSPQVLGSILKSGTTSESGALSLEPSHIGDLQKADTSSQGALVFLSKDYEIESQNPLASPTNTLLGSAKEQRYQRGLERNDSWGSFDLRAAIVYHTKEMESIWNLQKQDPKRIITYNEAMDSPDQ
